Target: T1, JAK2 (UniProt O60674 1-1132)
T1 construct: Detected and immunoprecipitated with the anti-JAK2 antibody (Cell Signaling #9945S); also called endogenous JAK2
Test: co-IP in cells expressing DLEC1-3Y vs wild-type DLEC1

B1: STAT3 (other)
chain: not shown
notes: Detected and immunoprecipitated with the anti-STAT3 antibody (Cell Signaling #9139S); also called total STAT3
B1: binds.

Source: patent publication US20200131584A1 (CHINESE UNIVERSITY OF HONG KONG, published 2020)
